Laboratory results reported in the supplement of paper PMC8728848.
Some of the results follow.

Legend:
Experiment in all cases: glycan array binding signal (z-score within array); higher = stronger binding
Details in all cases: glycan notation: IUPAC condensed, linker removed
[1] = biological target: Neu5Ac(a2-6)Gal(b1-4)GlcNAc(b1-2)Man(a1-3)[Neu5Ac(a2-6)Gal(b1-4)GlcNAc(b1-2)Man(a1-6)]Man(b1-4)GlcNAc(b1-4)GlcNAc
Method in brief: (§1)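 Glycan array data came from 3228 arrays in the Consortium for Functional Glycomics database, and only arrays with an available protein sequence were kept. Glycan names were put into IUPAC-condensed notation, and columns mapping to the same glycan were averaged. The binding signal is a within-array Z-score, averaged across arrays of one protein sequence run at different concentrations or buffers and across linkers. A negative Z-score can be read as non-binding.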

[2] = biological target: Neu5Ac(a2-6)Gal(b1-4)GlcNAc(b1-2)Man(a1-6)Man(b1-4)GlcNAc(b1-4)GlcNAc
Method in brief: as §1

[3] = biological target: Neu5Ac(a2-6)Gal(b1-4)GlcNAc(b1-2)Man(a1-6)[Gal(b1-4)GlcNAc(b1-2)Man(a1-3)]Man(b1-4)GlcNAc(b1-4)GlcNAc
Method in brief: as §1

[4] = biological target: Neu5Ac(a2-6)Gal(b1-4)GlcNAc(b1-2)Man(a1-6)[GlcNAc(b1-2)Man(a1-3)]Man(b1-4)GlcNAc(b1-4)GlcNAc
Method in brief: as §1

[5] = biological target: Neu5Ac(a2-6)Gal(b1-4)GlcNAc(b1-2)Man(a1-6)[Man(a1-3)]Man(b1-4)GlcNAc(b1-4)GlcNAc
Method in brief: as §1

[6] = biological target: Neu5Ac(a2-6)Gal(b1-4)GlcNAc(b1-3)Gal(b1-3)GlcNAc
Method in brief: as §1

[7] = biological target: Neu5Ac(a2-6)Gal(b1-4)GlcNAc(b1-3)Gal(b1-4)GlcNAc
Method in brief: as §1

[8] = biological target: Neu5Ac(a2-6)Gal(b1-4)GlcNAc(b1-3)Gal(b1-4)GlcNAc(b1-3)Gal(b1-4)GlcNAc
Method in brief: as §1

[9] = biological target: Neu5Ac(a2-6)Gal(b1-4)GlcNAc(b1-3)Gal(b1-4)[Fuc(a1-3)]GlcNAc(b1-3)Gal(b1-4)[Fuc(a1-3)]GlcNAc
Method in brief: as §1

[10] = biological target: Neu5Ac(a2-6)Gal(b1-4)GlcNAc(b1-3)GalNAc
Method in brief: as §1

[11] = biological target: Neu5Ac(a2-6)Gal(b1-4)GlcNAc6S
Method in brief: as §1

[12] = biological target: Neu5Ac(a2-6)GalNAc
Method in brief: as §1

[13] = biological target: Neu5Ac(a2-6)GalNAc(b1-4)GlcNAc
Method in brief: as §1

[14] = biological target: Neu5Ac(a2-6)GlcNAc(b1-4)GlcNAc
Method in brief: as §1

[15] = biological target: Neu5Ac(a2-6)GlcNAc(b1-4)GlcNAc(b1-4)GlcNAc
Method in brief: as §1

[16] = biological target: Neu5Ac(a2-8)Neu5Ac
Method in brief: as §1

[17] = biological target: Neu5Ac(a2-8)Neu5Ac(a2-3)Gal(b1-3)GalNAc(b1-4)[Neu5Ac(a2-8)Neu5Ac(a2-3)]Gal(b1-4)Glc
Method in brief: as §1

[18] = biological target: Neu5Ac(a2-8)Neu5Ac(a2-3)Gal(b1-4)Glc
Method in brief: as §1

[19] = biological target: Neu5Ac(a2-8)Neu5Ac(a2-3)[Gal(b1-3)GalNAc(b1-4)]Gal(b1-4)Glc
Method in brief: as §1

[20] = biological target: Neu5Ac(a2-8)Neu5Ac(a2-3)[GalNAc(b1-4)]Gal(b1-4)Glc
Method in brief: as §1

[21] = biological target: Neu5Ac(a2-8)Neu5Ac(a2-8)Neu5Ac
Method in brief: as §1

[22] = biological target: Neu5Ac(a2-8)Neu5Ac(a2-8)Neu5Ac(a2-3)Gal(b1-4)Glc
Method in brief: as §1

[23] = biological target: Neu5Ac(a2-8)Neu5Ac(a2-8)Neu5Ac(a2-3)[GalNAc(b1-4)]Gal(b1-4)Glc
Method in brief: as §1

[24] = biological target: Neu5Ac(a2-8)Neu5Ac(a2-8)Neu5Ac(a2-8)Neu5Ac(a2-3)[GalNAc(b1-4)]Gal(b1-4)Glc
Method in brief: as §1

[25] = biological target: Neu5Ac(b1-6)GalNAc
Method in brief: as §1

[26] = biological target: Neu5Ac(b2-6)Gal(b1-4)GlcNAc
Method in brief: as §1

[27] = biological target: Neu5Ac(b2-6)GalNAc
Method in brief: as §1

[28] = biological target: Neu5Ac9Ac(a2-3)Gal(b1-3)GlcNAc
Method in brief: as §1

[29] = biological target: Neu5Ac9Ac(a2-3)Gal(b1-4)GlcNAc
Method in brief: as §1

[30] = biological target: Neu5Ac9Ac(a2-6)Gal(b1-4)GlcNAc
Method in brief: as §1

[31] = biological target: Neu5Gc(a2-3)Gal(b1-3)GlcNAc
Method in brief: as §1

[32] = biological target: Neu5Gc(a2-3)Gal(b1-3)[Fuc(a1-4)]GlcNAc
Method in brief: as §1

[33] = biological target: Neu5Gc(a2-3)Gal(b1-4)Glc
Method in brief: as §1

[34] = biological target: Neu5Gc(a2-3)Gal(b1-4)GlcNAc
Method in brief: as §1

[35] = biological target: Neu5Gc(a2-3)Gal(b1-4)[Fuc(a1-3)]GlcNAc
Method in brief: as §1

[36] = biological target: Neu5Gc(a2-6)Gal(b1-4)GlcNAc
Method in brief: as §1

[37] = biological target: Neu5Gc(a2-6)GalNAc
Method in brief: as §1

[38] = biological target: Neu5Gc(b2-6)Gal(b1-4)GlcNAc
Method in brief: as §1

B1: FedF (Escherichia coli), Q47212 (protein)
chain: MRLKYILIIPLLLISLSVFASTLQVDKSVSYDWINSSASSAQVTGTLLGTGKTNTTQMPALYTWQHQIYNVNFIPSSSGTLTCQAGTILVWKNGRETQYALECRVSIHHSSGSINESQWGQQSQVGFGTACGNKKCRFTGFEISLRIPPNAQTYPLSSGDLKGSFSLTNKEVNWSASIYVPAIAKSYRLDTSITLPDTVNLKQNQATPVYYTFSAPSVSNTITGIPNQNDMPSSNVKLTIGPIQSKTTALYVQPDATGSWYDLSKSITMTVVKSSMLNFKGINAKPGNVTLSVPIVFEIQ
- glycan array binding signal (z-score) [1]: -0.12
- glycan array binding signal (z-score) [2]: 0.04
- glycan array binding signal (z-score) [3]: -0.097
- glycan array binding signal (z-score) [4]: -0.154
- glycan array binding signal (z-score) [5]: -0.107
- glycan array binding signal (z-score) [6]: 0.251
- glycan array binding signal (z-score) [7]: -0.344
- glycan array binding signal (z-score) [8]: -0.084
- glycan array binding signal (z-score) [9]: -0.254
- glycan array binding signal (z-score) [10]: 0.274
- glycan array binding signal (z-score) [11]: -0.077
- glycan array binding signal (z-score) [12]: -0.172
- glycan array binding signal (z-score) [13]: -0.187
- glycan array binding signal (z-score) [14]: -0.162
- glycan array binding signal (z-score) [15]: -0.193
- glycan array binding signal (z-score) [16]: 0.043
- glycan array binding signal (z-score) [17]: -0.166
- glycan array binding signal (z-score) [18]: 0.101
- glycan array binding signal (z-score) [19]: -0.138
- glycan array binding signal (z-score) [20]: 0.205
- glycan array binding signal (z-score) [21]: -0.082
- glycan array binding signal (z-score) [22]: -0.283
- glycan array binding signal (z-score) [23]: 0.274
- glycan array binding signal (z-score) [24]: -0.173
- glycan array binding signal (z-score) [25]: -0.365
- glycan array binding signal (z-score) [26]: -0.286
- glycan array binding signal (z-score) [27]: -0.117
- glycan array binding signal (z-score) [28]: -0.186
- glycan array binding signal (z-score) [29]: -0.13
- glycan array binding signal (z-score) [30]: 0.054
- glycan array binding signal (z-score) [31]: 0.252
- glycan array binding signal (z-score) [32]: -0.306
- glycan array binding signal (z-score) [33]: -0.182
- glycan array binding signal (z-score) [34]: -0.223
- glycan array binding signal (z-score) [35]: -0.223
- glycan array binding signal (z-score) [36]: -0.063
- glycan array binding signal (z-score) [37]: -0.115
- glycan array binding signal (z-score) [38]: 0.178
